Assay results taken from the supplement of paper PMC6089552.
In all, about 3,200 compounds went through this assay and about 300 (9.4%) showed activity. Only a part is listed here, and it is no random draw.

Tested on: A673/TR/shEF
Assay: cell viability (LOESS-normalised, relative to median of negative controls) (log2 ratio); higher = more viable cells (less compound effect), active = hit call of the paper (over 3 MAD below the median)
Settings: treatment time: 72 h
How it was run: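 Doxycycline, present or absent from 24 h before compounds, was used to induce EWS-FLI1 shRNA knockdown in A673/TR/shEF Ewing sarcoma cells at 1,500 per well in 384-well plates. Cells then received library compounds at two or more concentrations, or DMSO controls, for three days. Viability was measured by CellTiter-Glo luminescence on an Envision reader, and per-plate LOESS correction, division by the negative-control median and log2 transformation followed.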

[1] = 0.25 µM, library screen: screen2, EWS-FLI1 expression: high (no doxycycline)
[2] = 0.25 µM, library screen: screen2, EWS-FLI1 expression: low (doxycycline-induced shRNA knockdown)
[3] = 2.5 µM, library screen: screen2, EWS-FLI1 expression: high (no doxycycline)
[4] = 2.5 µM, library screen: screen2, EWS-FLI1 expression: low (doxycycline-induced shRNA knockdown)
[5] = 0.25 µM, library screen: screen1, EWS-FLI1 expression: high (no doxycycline)
[6] = 0.25 µM, library screen: screen1, EWS-FLI1 expression: low (doxycycline-induced shRNA knockdown)
[7] = 2.5 µM, library screen: screen1, EWS-FLI1 expression: high (no doxycycline)
[8] = 2.5 µM, library screen: screen1, EWS-FLI1 expression: low (doxycycline-induced shRNA knockdown)
[9] = 0.103 µM, library screen: screen3, EWS-FLI1 expression: high (no doxycycline)
[10] = 0.103 µM, library screen: screen3, EWS-FLI1 expression: low (doxycycline-induced shRNA knockdown)
[11] = 0.308 µM, library screen: screen3, EWS-FLI1 expression: high (no doxycycline)
[12] = 0.308 µM, library screen: screen3, EWS-FLI1 expression: low (doxycycline-induced shRNA knockdown)
[13] = 0.926 µM, library screen: screen3, EWS-FLI1 expression: high (no doxycycline)
[14] = 0.926 µM, library screen: screen3, EWS-FLI1 expression: low (doxycycline-induced shRNA knockdown)
[15] = 2.8 µM, library screen: screen3, EWS-FLI1 expression: high (no doxycycline)
[16] = 2.8 µM, library screen: screen3, EWS-FLI1 expression: low (doxycycline-induced shRNA knockdown)
[17] = 8.3 µM, library screen: screen3, EWS-FLI1 expression: high (no doxycycline)
[18] = 8.3 µM, library screen: screen3, EWS-FLI1 expression: low (doxycycline-induced shRNA knockdown)
[19] = 25 µM, library screen: screen3, EWS-FLI1 expression: high (no doxycycline)
[20] = 25 µM, library screen: screen3, EWS-FLI1 expression: low (doxycycline-induced shRNA knockdown)

Measured: cell viability (log2)

Cc1ccccc1CNc1ncnc2c1ncn2[C@@H]1O[C@H](CO)[C@@H](O)[C@H]1O
inactive: [1] 0.1 | [2] 0.0941 | [3] 0.078 | [4] 0.0169

CC(C)=CCc1c2c(c3occ(-c4ccc(O)cc4)c(=O)c3c1O)C=CC(C)(C)O2
inactive: [5] 0.124 | [6] 0.0204 | [7] 0.117 | [8] 0.17

CCCC(=O)[O-].[Na+]
inactive: [9] 0.124 | [10] 0.035 | [11] 0.185 | [12] 0.077 | [13] 0.111 | [14] 0.0755 | [15] 0.137 | [16] 0.0493 | [17] 0.102 | [18] 0.0943 | [19] 0.209 | [20] 0.0373

C[C@@H]1C/C=C/C=C/C=C/C=C/[C@H](OC2O[C@H](C)[C@@H](O)[C@H](N)[C@@H]2O)C[C@@H]2O[C@](O)(C[C@@H](O)C[C@H]3O[C@@H]3/C=C/C(=O)O1)C[C@H](O)[C@H]2C(=O)O (stereo partly specified)
inactive: [9] 0.0488 | [10] 0.0464 | [11] 0.0456 | [12] 0.0497 | [13] 0.0317 | [14] 0.0938 | [15] 0.0554 | [16] 0.0621 | [17] 0.0808 | [18] 0.0825 | [19] 0.128 | [20] 0.0916

Cc1ccccc1C(OCCN(C)C)c1ccccc1 (stereo unspecified)
inactive: [5] 0.0484 | [6] 0.00928 | [1] 0.208 | [2] 0.0643 | [7] 0.0897 | [8] 0.134 | [3] 0.102 | [4] 0.103

CN(C)CCOC(c1ccc(Cl)cc1)c1ccccn1 (stereo unspecified)
inactive: [5] 0.0635 | [6] 0.14 | [7] 0.162 | [8] 0.124

C[C@@H]1CC[C@@]23CCC4(C)[C@@](C=CC5[C@@]6(C)CCC(=O)C(C)(C)C6CC[C@]54C)(OC2=O)C3[C@H]1C (stereo partly specified)
inactive: [5] 0.12 | [6] 0.0225 | [7] 0.0629 | [8] 0.0141

NC(=O)NC1NC(=O)NC1=O (stereo unspecified)
inactive: [5] 0.0962 | [6] 0.0535 | [7] 0.134 | [8] 0.0535

NCCCC(N)(C(=O)O)C(F)F (stereo unspecified)
inactive: [1] 0.185 | [2] 0.0732 | [3] 0.14 | [4] 0.0555

COc1c2ccoc2cc2oc(=O)ccc12
inactive: [5] -0.00257 | [6] -0.0928 | [7] 0.0783 | [8] -0.0832

O=C1CCC(N2C(=O)c3ccccc3C2=O)C(=O)N1 (stereo unspecified)
inactive: [9] 0.0389 | [10] 0.0275 | [1] 0.166 | [2] 0.0988 | [11] -0.0491 | [12] 0.0452 | [13] -0.059 | [14] -0.0217 | [3] 0.0663 | [4] 0.0496 | [15] 0.0136 | [16] 0.0207 | [17] 0.0491 | [18] 0.0126 | [19] -0.00372 | [20] 0.107

COc1ccc(-c2nc3ccc(C4=NNC(=O)CC4C)cc3[nH]2)cc1 (stereo unspecified)
inactive: [9] -0.0122 | [10] 0.0487 | [11] -0.0245 | [12] -0.0302 | [13] -0.00296 | [14] -0.0241 | [15] 0.0147 | [16] -0.00868 | [17] -0.0247 | [18] 0.0168 | [19] -0.172 | [20] -0.00571

CCN(CC)CCNC(=O)COc1ccc(OC)cc1
inactive: [5] 0.00705 | [6] 0.0569 | [7] 0.0214 | [8] 0.0733

Cc1nc2n(c(=O)c1CCN1CCC(c3noc4cc(F)ccc34)CC1)CCCC2O (stereo unspecified)
inactive: [9] 0.129 | [10] 0.0142 | [11] 0.116 | [12] 0.0891 | [13] 0.0923 | [14] 0.124 | [15] 0.111 | [16] 0.0944 | [17] 0.108 | [18] 0.0895 | [19] 0.0176 | [20] 0.17

CC1(C)Oc2ccc3ccc(=O)oc3c2C[C@H]1O
inactive: [5] 0.0366 | [6] -0.00203 | [7] 0.0909 | [8] 0.0204

CC(=O)OCC1=C(C(=O)O)N2C(=O)[C@@H](NC(=O)Cc3cccs3)[C@H]2SC1
inactive: [5] 0.0834 | [6] 0.0392 | [1] 0.184 | [2] 0.0927 | [7] 0.127 | [8] 0.146 | [3] -0.0276 | [4] 0.0781
